# The other results are listed elsewhere or left out. The list includes weakly bound sequences.
# Target: T1, MBP-FoxP3dN (UniProt Q99JB6)
# T1 sequence: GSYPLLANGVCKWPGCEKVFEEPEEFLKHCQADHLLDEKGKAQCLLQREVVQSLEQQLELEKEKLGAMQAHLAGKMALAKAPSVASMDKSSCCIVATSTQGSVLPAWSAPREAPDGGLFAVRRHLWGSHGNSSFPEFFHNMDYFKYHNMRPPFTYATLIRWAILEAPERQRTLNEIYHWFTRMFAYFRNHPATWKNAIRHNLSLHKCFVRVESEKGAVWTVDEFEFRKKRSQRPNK
# Experiment: PD-seq (MBP pull-down with sequencing)
# Settings: 20 mM Tris-HCl pH 7.5, 100 mM NaCl, 1.5 mM MgCl2, 0.4 uM protein, 0.1 uM dsDNA library, 30 min, room temperature, amylose pull-down; high values mean tight binding; double strand, one strand shown
row,Sequence,binding signal (RPM ratio (pull-down/input))
1,GATGATTGTTCTCCCAGCTGATGAATTCAGAGTTTCGAGTAAACAAATTTTCCTAATCTTTCTGTTCAAGCGCCATCTAC,1.17
2,GATGATTGTTCTCCCAGCTGATGAATTCGCATACTCGAGTAAACAAATTTTCCTAATCTTTCTGTTCAAGCGCCATCTAC,1.33
3,GATGATTGTTCTCCCAGCTGATGAATTTATCTGGTCGAGTAAACAAATTTTCCTAATCTTTCTGTTCAAGCGCCATCTAC,0.578
4,GATGATTGTTCTCCCAGCTGATGAATTCGCGGTATCGAGTAAACAAATTTTCCTAATCTTTCTGTTCAAGCGCCATCTAC,0.631
5,GATGATTGTTCTCCCAGCTGATGAATTAACTTCTTCGAGTAAACAAATTTTCCTAATCTTTCTGTTCAAGCGCCATCTAC,0.237
6,GATGATTGTTCTCCCAGCTGATGAATTGCTCAGTTCGAGTAAACAAATTTTCCTAATCTTTCTGTTCAAGCGCCATCTAC,0.462
7,GATGATTGTTCTCCCAGCTGATGAATTATACAGTTCGAGTAAACAAATTTTCCTAATCTTTCTGTTCAAGCGCCATCTAC,0.621
8,GATGATTGTTCTCCCAGCTGATGAATTCTGCGCATCGAGTAAACAAATTTTCCTAATCTTTCTGTTCAAGCGCCATCTAC,1.5
9,GATGATTGTTCTCCCAGCTGATGAATTATGTCTTTCGAGTAAACAAATTTTCCTAATCTTTCTGTTCAAGCGCCATCTAC,1.78
10,GATGATTGTTCTCCCAGCTGATGAATTAACTGATTCGAGTAAACAAATTTTCCTAATCTTTCTGTTCAAGCGCCATCTAC,0.354
11,GATGATTGTTCTCCCAGCTGATGAATTTCAAGGGTCGAGTAAACAAATTTTCCTAATCTTTCTGTTCAAGCGCCATCTAC,0.206
12,GATGATTGTTCTCCCAGCTGATGAATTTTGTGTATCGAGTAAACAAATTTTCCTAATCTTTCTGTTCAAGCGCCATCTAC,6.55
13,GATGATTGTTCTCCCAGCTGATGAATTAGGTAGGTCGAGTAAACAAATTTTCCTAATCTTTCTGTTCAAGCGCCATCTAC,0.461
14,GATGATTGTTCTCCCAGCTGATGAATTGAAGAACTCGAGTAAACAAATTTTCCTAATCTTTCTGTTCAAGCGCCATCTAC,0.164
15,GATGATTGTTCTCCCAGCTGATGAATTTGAACGTTCGAGTAAACAAATTTTCCTAATCTTTCTGTTCAAGCGCCATCTAC,0.366
16,GATGATTGTTCTCCCAGCTGATGAATTGGGTTATTCGAGTAAACAAATTTTCCTAATCTTTCTGTTCAAGCGCCATCTAC,1.43
17,GATGATTGTTCTCCCAGCTGATGAATTGCCTACGTCGAGTAAACAAATTTTCCTAATCTTTCTGTTCAAGCGCCATCTAC,0.553
18,GATGATTGTTCTCCCAGCTGATGAATTTTCGGGCTCGAGTAAACAAATTTTCCTAATCTTTCTGTTCAAGCGCCATCTAC,0.222
19,GATGATTGTTCTCCCAGCTGATGAATTGTGTGCGTCGAGTAAACAAATTTTCCTAATCTTTCTGTTCAAGCGCCATCTAC,2.16
20,GATGATTGTTCTCCCAGCTGATGAATTGAAGCTTTCGAGTAAACAAATTTTCCTAATCTTTCTGTTCAAGCGCCATCTAC,0.758
21,GATGATTGTTCTCCCAGCTGATGAATTGCACTGATCGAGTAAACAAATTTTCCTAATCTTTCTGTTCAAGCGCCATCTAC,0.683

row,Sequence,binding signal (RPM ratio (pull-down/input))
1,GATGATTGTTCTCCCAGCTGATGAATTTTCACAATCGAGTAAACAAATTTTCCTAATCTTTCTGTTCAAGCGCCATCTAC,0.448
2,GATGATTGTTCTCCCAGCTGATGAATTCGGTCTGTCGAGTAAACAAATTTTCCTAATCTTTCTGTTCAAGCGCCATCTAC,0.415
3,GATGATTGTTCTCCCAGCTGATGAATTGATAACCTCGAGTAAACAAATTTTCCTAATCTTTCTGTTCAAGCGCCATCTAC,0.405
4,GATGATTGTTCTCCCAGCTGATGAATTGAGGTTATCGAGTAAACAAATTTTCCTAATCTTTCTGTTCAAGCGCCATCTAC,0.693
5,GATGATTGTTCTCCCAGCTGATGAATTGGGGGACTCGAGTAAACAAATTTTCCTAATCTTTCTGTTCAAGCGCCATCTAC,0.448
6,GATGATTGTTCTCCCAGCTGATGAATTATTCACTTCGAGTAAACAAATTTTCCTAATCTTTCTGTTCAAGCGCCATCTAC,0.347
7,GATGATTGTTCTCCCAGCTGATGAATTACCCCGATCGAGTAAACAAATTTTCCTAATCTTTCTGTTCAAGCGCCATCTAC,0.236
8,GATGATTGTTCTCCCAGCTGATGAATTAAACGATTCGAGTAAACAAATTTTCCTAATCTTTCTGTTCAAGCGCCATCTAC,0.351
9,GATGATTGTTCTCCCAGCTGATGAATTGCTAGTATCGAGTAAACAAATTTTCCTAATCTTTCTGTTCAAGCGCCATCTAC,1.12
10,GATGATTGTTCTCCCAGCTGATGAATTATTCCGTTCGAGTAAACAAATTTTCCTAATCTTTCTGTTCAAGCGCCATCTAC,0.301
11,GATGATTGTTCTCCCAGCTGATGAATTTTCGATATCGAGTAAACAAATTTTCCTAATCTTTCTGTTCAAGCGCCATCTAC,0.451
12,GATGATTGTTCTCCCAGCTGATGAATTCCGTAGTTCGAGTAAACAAATTTTCCTAATCTTTCTGTTCAAGCGCCATCTAC,0.804
13,GATGATTGTTCTCCCAGCTGATGAATTTCGGGGTTCGAGTAAACAAATTTTCCTAATCTTTCTGTTCAAGCGCCATCTAC,0.424
14,GATGATTGTTCTCCCAGCTGATGAATTATTTTCATCGAGTAAACAAATTTTCCTAATCTTTCTGTTCAAGCGCCATCTAC,0.748
15,GATGATTGTTCTCCCAGCTGATGAATTCCCTAAATCGAGTAAACAAATTTTCCTAATCTTTCTGTTCAAGCGCCATCTAC,0.213
16,GATGATTGTTCTCCCAGCTGATGAATTAACGAAGTCGAGTAAACAAATTTTCCTAATCTTTCTGTTCAAGCGCCATCTAC,0.2
17,GATGATTGTTCTCCCAGCTGATGAATTGCCAAGCTCGAGTAAACAAATTTTCCTAATCTTTCTGTTCAAGCGCCATCTAC,0.436
18,GATGATTGTTCTCCCAGCTGATGAATTGCATACCTCGAGTAAACAAATTTTCCTAATCTTTCTGTTCAAGCGCCATCTAC,1.09
19,GATGATTGTTCTCCCAGCTGATGAATTTATCACCTCGAGTAAACAAATTTTCCTAATCTTTCTGTTCAAGCGCCATCTAC,2.18
20,GATGATTGTTCTCCCAGCTGATGAATTTGAACAGTCGAGTAAACAAATTTTCCTAATCTTTCTGTTCAAGCGCCATCTAC,0.234
21,GATGATTGTTCTCCCAGCTGATGAATTGACTTTGTCGAGTAAACAAATTTTCCTAATCTTTCTGTTCAAGCGCCATCTAC,0.639

row,Sequence,binding signal (RPM ratio (pull-down/input))
1,GATGATTGTTCTCCCAGCTGATGAATTTCCGGTTTCGAGTAAACAAATTTTCCTAATCTTTCTGTTCAAGCGCCATCTAC,0.366
2,GATGATTGTTCTCCCAGCTGATGAATTTAGTGGCTCGAGTAAACAAATTTTCCTAATCTTTCTGTTCAAGCGCCATCTAC,1.02
3,GATGATTGTTCTCCCAGCTGATGAATTCTTGCTGTCGAGTAAACAAATTTTCCTAATCTTTCTGTTCAAGCGCCATCTAC,0.508
4,GATGATTGTTCTCCCAGCTGATGAATTAATGATATCGAGTAAACAAATTTTCCTAATCTTTCTGTTCAAGCGCCATCTAC,0.583
5,GATGATTGTTCTCCCAGCTGATGAATTGGCCCCTTCGAGTAAACAAATTTTCCTAATCTTTCTGTTCAAGCGCCATCTAC,0.305
6,GATGATTGTTCTCCCAGCTGATGAATTTTATATCTCGAGTAAACAAATTTTCCTAATCTTTCTGTTCAAGCGCCATCTAC,0.767
7,GATGATTGTTCTCCCAGCTGATGAATTATGGCCCTCGAGTAAACAAATTTTCCTAATCTTTCTGTTCAAGCGCCATCTAC,0.687
8,GATGATTGTTCTCCCAGCTGATGAATTTGCCATCTCGAGTAAACAAATTTTCCTAATCTTTCTGTTCAAGCGCCATCTAC,2.56
9,GATGATTGTTCTCCCAGCTGATGAATTACTATTATCGAGTAAACAAATTTTCCTAATCTTTCTGTTCAAGCGCCATCTAC,0.758
10,GATGATTGTTCTCCCAGCTGATGAATTAGGCGTGTCGAGTAAACAAATTTTCCTAATCTTTCTGTTCAAGCGCCATCTAC,3.3
11,GATGATTGTTCTCCCAGCTGATGAATTGGATGTATCGAGTAAACAAATTTTCCTAATCTTTCTGTTCAAGCGCCATCTAC,1.42
12,GATGATTGTTCTCCCAGCTGATGAATTCTCGCTATCGAGTAAACAAATTTTCCTAATCTTTCTGTTCAAGCGCCATCTAC,0.593
13,GATGATTGTTCTCCCAGCTGATGAATTAACGCCATCGAGTAAACAAATTTTCCTAATCTTTCTGTTCAAGCGCCATCTAC,2.15
14,GATGATTGTTCTCCCAGCTGATGAATTGCGTATATCGAGTAAACAAATTTTCCTAATCTTTCTGTTCAAGCGCCATCTAC,2.34
15,GATGATTGTTCTCCCAGCTGATGAATTGTAAGTCTCGAGTAAACAAATTTTCCTAATCTTTCTGTTCAAGCGCCATCTAC,0.647
16,GATGATTGTTCTCCCAGCTGATGAATTGGTATATTCGAGTAAACAAATTTTCCTAATCTTTCTGTTCAAGCGCCATCTAC,2.34
17,GATGATTGTTCTCCCAGCTGATGAATTACGCAGTTCGAGTAAACAAATTTTCCTAATCTTTCTGTTCAAGCGCCATCTAC,1.3
18,GATGATTGTTCTCCCAGCTGATGAATTAGGCGTTTCGAGTAAACAAATTTTCCTAATCTTTCTGTTCAAGCGCCATCTAC,2.84
19,GATGATTGTTCTCCCAGCTGATGAATTACCGGTTTCGAGTAAACAAATTTTCCTAATCTTTCTGTTCAAGCGCCATCTAC,0.427
20,GATGATTGTTCTCCCAGCTGATGAATTACCGGTATCGAGTAAACAAATTTTCCTAATCTTTCTGTTCAAGCGCCATCTAC,0.463
21,GATGATTGTTCTCCCAGCTGATGAATTCCCGGTGTCGAGTAAACAAATTTTCCTAATCTTTCTGTTCAAGCGCCATCTAC,0.317
